Source: ChEMBL document CHEMBL4888484, “Replenishing the malaria drug discovery pipeline: Screening and hit evaluation of the MMV Hit Generation Library 1 (HGL1) against asexual blood stage Plasmodium falciparum ,using a nano luciferase reporter read-out” (2022)
Hit rate of the full screen: of about 150,000 compounds, about 540 (0.36%) showed an effect of 50% or more. Some of the results follow.

What follows are molecules tested on Plasmodium falciparum (assay: Primary screen in NF54 nanoGlo assay, in single point, at 2uM, 72h; a lower Z score goes with more inhibition). Conditions: timepoint 72 hour.
Type: functional, Erythrocyte
In the case of `COc1cc(OC)cc(C2(O)CCN(C(=O)CCn3nnc4ccccc4c3=O)CC2)c1`, the “% Inhibition” value is reported as -9% and the Z score is reported as 1.83.
For `O=S(=O)(c1cc(F)ccc1NCCO)N1CCOC2(CCC2)C1`, the “% Inhibition” value was -4% and the Z score was 0.68.
For `CCOCCC1CCN(C(=O)c2cccc(-n3cccn3)n2)CC1`, the “% Inhibition” value was -15% and the Z score was 1.43.
For `Fc1cccc(CN2CCCN(c3nc4cc(Cl)ccc4c4nnc(C5CCCCC5)n34)CC2)c1`, the “% Inhibition” value was -7% and the Z score was 1.37.
In the case of `COc1ccccc1/C=C/c1c(-c2ccccc2)ncn1Cc1ncc[nH]1`, the “% Inhibition” value is reported as 10% and the Z score is reported as -1.17.
For `COc1ccccc1OCc1csc(NC(=O)c2ccco2)n1`, the “% Inhibition” value was -6% and the Z score was 0.85.
For `Cc1cccnc1CNC(=O)Nc1cnn(CCN(C)C)c1`, the “% Inhibition” value was -7% and the Z score was 1.14.
`Cc1cccc2c1CN(C(=O)OC(C)(C)C)CCN2C(=O)Cc1ccon1` was tested, and the “% Inhibition” value was -10% and the Z score was 1.3.
With `O=C(NC1CC1c1ccccc1)c1cc(F)c(O)c(F)c1` (stereo not given) the “% Inhibition” value was 18% and the Z score was -2.14.
`CCc1ncoc1C(=O)NC1=NN(Cc2ccccc2)[C@@H](C)C1` was tested, and the “% Inhibition” value was -3% and the Z score was 0.41.
With `Cc1cc(C)c(-c2nc3c(cnn3Cc3ccco3)[nH]2)cc1Cn1cncn1` the “% Inhibition” value was -4% and the Z score was 0.79.
For `CC[C@H](C)NC(=O)Cn1nc(C)cc1C`, the “% Inhibition” value was 11% and the Z score was -1.7.
With `O=C(NCc1ccccc1)C1CCN(c2ccc(-c3ccccc3)nn2)CC1` the “% Inhibition” value was -21% and the Z score was 2.03.
With `O=C(O)c1cccc(N2CC3(CCC3)C3COCC32)n1` (stereo not given) the “% Inhibition” value was -4% and the Z score was 0.71.
`CCc1noc(CN2C(=O)c3cc(Cl)c(Cl)cc3C2=O)n1` was tested, and the “% Inhibition” value was 9% and the Z score was -1.18.
With `Cc1ccc(C(=O)C[n+]2ccc3ccccc3c2C)cc1` the “% Inhibition” value was -5% and the Z score was 0.42.
`COC[C@@H]1CCC[C@@H]1NC(=O)c1cccc(S(=O)(=O)N2CCC2)c1` was tested, and the “% Inhibition” value was -12% and the Z score was 1.27.
With `Cc1cccnc1OC1CCCC1N(C)C` (stereo not given) the “% Inhibition” value was -11% and the Z score was 1.39.
`CCCC1CCC(c2ccc(C(=O)Nc3cccc(NC(=O)c4ccc(C5CCC(CCC)CC5)cc4)n3)cc2)CC1` (stereo not given) was tested, and the “% Inhibition” value was -1% and the Z score was 0.18.
`COc1ccc2c(c1)CCC[C@@]2(O)CNC(=O)c1ccc(Cl)s1` was tested, and the “% Inhibition” value was -11% and the Z score was 1.44.
With `CCC(C)(C)C(=O)Nc1ccccc1C(N)=O` the “% Inhibition” value was -14% and the Z score was 2.68.
With `CC(C)c1cc(C(=O)N[C@H]2Cc3ccccc3[C@@H]2N)no1` the “% Inhibition” value was 1% and the Z score was -0.14.
For `CC(C)c1nc(NC(=O)c2ccc3[nH]cnc3c2)n(C)n1`, the “% Inhibition” value was 1% and the Z score was -0.09.
`Cc1ccc(-c2noc3nc(C4CC4)cc(C(=O)N4CCCCCC4)c23)cc1` was tested, and the “% Inhibition” value was 35% and the Z score was -3.98.
For `Cc1cc(C)n(CC(=O)Nc2cncnc2-n2cccn2)n1`, the “% Inhibition” value was -7% and the Z score was 0.96.
For `Cc1nn(C)c(C)c1-c1cc(C(=O)Nc2ccc(F)cc2F)c2c(C)nn(C)c2n1`, the “% Inhibition” value was 0% and the Z score was -0.07.
`C[C@H]1COCCN1CC(=O)Nc1ccc(Br)cn1` was tested, and the “% Inhibition” value was -6% and the Z score was 0.53.
In the case of `CCCN(C[C@H]1CCOC1)C(=O)Cc1cccc(Cl)c1`, the “% Inhibition” value is reported as -13% and the Z score is reported as 1.62.
For `Cc1cc(C(=O)NC2(CO)CCC2)nn1C(C)C`, the “% Inhibition” value was -7% and the Z score was 0.87.
In the case of `CCN(CC)S(=O)(=O)NC(=O)C1CC1c1cc(F)ccc1F` (stereo not given), the “% Inhibition” value is reported as -2% and the Z score is reported as 0.42.
In the case of `C[C@@H](C(N)=O)N1CCC2(CC1)CN(CCc1ccccc1)C(=O)O2`, the “% Inhibition” value is reported as -19% and the Z score is reported as 1.82.
In the case of `CCn1ncc(NS(=O)(=O)c2ccc3ccccc3c2)c1C(=O)N(C)C`, the “% Inhibition” value is reported as 0% and the Z score is reported as 0.04.
`CCN1CCn2cc(C(=O)NCc3nc4ccccc4[nH]3)nc2C1=O` was tested, and the “% Inhibition” value was -1% and the Z score was 0.16.
In the case of `c1ccc2c(c1)cnn2C1CCN(CCOC2CCCCO2)C1` (stereo not given), the “% Inhibition” value is reported as -14% and the Z score is reported as 1.71.
In the case of `O=C(NC[C@H]1Cc2ccccc2O1)c1ccoc1`, the “% Inhibition” value is reported as -10% and the Z score is reported as 0.94.
For `CC(C)(C)[C@@H](O)CNc1ccc(C#N)cc1F`, the “% Inhibition” value was -15% and the Z score was 3.02.
For `CCC(C)(C)CNCC1CCOC1c1cnn(C)c1` (stereo not given), the “% Inhibition” value was -3% and the Z score was 0.43.
With `COC(=O)c1nc(NC(=O)[C@H]2CC(=O)OC2(C)C)sc1-c1ccc(F)cc1` the “% Inhibition” value was -5% and the Z score was 0.75.
For `COc1ccc(-c2nc(CN3CCC[C@H](C(N)=O)C3)c(C)o2)c2ccccc12`, the “% Inhibition” value was -10% and the Z score was 1.9.
With `COCCOC1CN(C(=O)Nc2ccnc(C)c2)C1` the “% Inhibition” value was -8% and the Z score was 1.29.
`O=c1[nH]c2cccnc2c(=O)n1CCc1c[nH]c2cc(F)ccc12` was tested, and the “% Inhibition” value was 0% and the Z score was 0.01.
With `Cc1cccc(C(=O)N(Cc2cc(NC(=O)C3CCC3)ccc2N(C)C)C(C)C)c1` the “% Inhibition” value was 9% and the Z score was -1.
In the case of `CN(Cc1nnc2ccccn12)c1ccncc1Cl`, the “% Inhibition” value is reported as 27% and the Z score is reported as -3.09.
For `CCc1nsc(N2CCO[C@H](c3ccc(OC(F)F)cc3)C2)n1`, the “% Inhibition” value was 2% and the Z score was -0.28.
For `Cc1nn(-c2ncccn2)c2c1[C@@H](c1ccccc1OCC(C)C)CC(=O)N2`, the “% Inhibition” value was 9% and the Z score was -1.51.
`CCN1CCN(c2c(CN(C(=O)NC3CCCCC3)C(C)C)c(C)nn2-c2cccc(F)c2)CC1` was tested, and the “% Inhibition” value was -10% and the Z score was 1.04.
For `Cc1ncccc1CN1CCN([C@@H](C)C(=O)N2CCOCC2)CC1`, the “% Inhibition” value was 7% and the Z score was -0.68.
For `Cc1nc(C)c(CNC(=O)[C@@H](c2ccc3c(c2)OCO3)N(C)C)s1`, the “% Inhibition” value was -14% and the Z score was 2.68.
`Cc1cc(C(=O)N2CCN(c3ccc4cn[nH]c4c3)C(=O)C2)c(C)o1` was tested, and the “% Inhibition” value was -1% and the Z score was 0.09.
For `Cc1ccc([C@@H]2CCCN2CCc2cccnc2)o1`, the “% Inhibition” value was 7% and the Z score was -0.85.
`Cc1noc(C)c1[C@@H](C)CC(=O)Nc1ncccc1Cl` was tested, and the “% Inhibition” value was -7% and the Z score was 1.12.
For `CN1CCN(c2nc3c(cc2C(N)=O)CCC3)C[C@]12CCNC(=O)CC2`, the “% Inhibition” value was -1% and the Z score was 0.2.
`CCCN(c1ccccc1OC)S(=O)(=O)c1cc2c(cc1C)NC(=O)CO2` was tested, and the “% Inhibition” value was -4% and the Z score was 0.66.
With `O=C(NCCNC(=O)c1cc2cccc(F)c2o1)c1ccc(O)cc1` the “% Inhibition” value was -19% and the Z score was 3.37.
For `O=C(O)CN(C(=O)c1csc(-c2ccc(Cl)s2)n1)C1CCOCC1`, the “% Inhibition” value was -3% and the Z score was 0.37.
For `CC(NC(=O)NC1CCCCC1NS(C)(=O)=O)c1nccs1` (stereo not given), the “% Inhibition” value was -9% and the Z score was 1.18.
In the case of `O=C(COC[C@H]1CCCCO1)NCc1ccc2c(c1)CCCC2`, the “% Inhibition” value is reported as 18% and the Z score is reported as -2.23.
In the case of `CC(=O)c1ccccc1C(=O)NC[C@H]1CCN(Cc2cccnc2)C1`, the “% Inhibition” value is reported as -6% and the Z score is reported as 1.
`CN(Cc1cncc(F)c1)c1cnn(C)c1` was tested, and the “% Inhibition” value was -19% and the Z score was 2.42.
With `COCCCNC(=O)C(=O)NCc1ccc(C)cc1` the “% Inhibition” value was -9% and the Z score was 1.47.
For `CCS(=O)(=O)N1CC(=O)N(c2ccc(C)c(Cl)c2)[C@](C)(C(=O)NC2CCCCCCC2)C1`, the “% Inhibition” value was -2% and the Z score was 0.22.
With `CC1CCN(Cc2cccn2-c2nnc(N3CCN(Cc4ccccc4)CC3)s2)CC1` the “% Inhibition” value was -6% and the Z score was 0.61.
In the case of `Cc1ccn2c(C(=O)N[C@H]3CC(=O)N(Cc4cccc(F)c4)C3)nnc2n1`, the “% Inhibition” value is reported as -13% and the Z score is reported as 1.23.
With `O=C(CCc1c[nH]cn1)N1CC2CCC(C1)O2` the “% Inhibition” value was -4% and the Z score was 0.52.
For `O=C(CCC1CCN(Cc2ccc3nonc3c2)CC1)Nc1ccc2c(c1)OCCO2`, the “% Inhibition” value was -4% and the Z score was 0.6.
For `COc1cccc([C@H]2C[C@@H]2C(=O)Nc2cnc(C(N)=O)s2)c1`, the “% Inhibition” value was -2% and the Z score was 0.44.
For `CC(=O)c1ccc(S(=O)(=O)N2CCN(CC(=O)c3c[nH]c(C(=O)N4CCCC4)c3)CC2)cc1`, the “% Inhibition” value was -20% and the Z score was 2.72.
`CN(C)c1ccnc(CNC(=O)c2ccncc2)n1` was tested, and the “% Inhibition” value was 0% and the Z score was -0.02.
For `CC(C)C(=O)N1CCC[C@H](NC(=O)c2nccnc2O)C1`, the “% Inhibition” value was -7% and the Z score was 0.93.
For `Cc1cc(C)c(S(=O)(=O)N2CCC(C(=O)NCCc3csc(-c4ccccc4)n3)CC2)cc1C`, the “% Inhibition” value was -4% and the Z score was 0.54.
With `O=C(Cc1noc(-c2cccc3[nH]ncc23)n1)NC1CCCCC1` the “% Inhibition” value was -4% and the Z score was 0.7.
With `Fc1ccc(OC[C@H]2CCOC2)c(-c2nc3ncccn3n2)c1` the “% Inhibition” value was 12% and the Z score was -1.63.
With `CC1(C)CN(c2ccc(S(N)(=O)=O)cc2S(C)(=O)=O)CCO1` the “% Inhibition” value was -7% and the Z score was 0.72.
In the case of `CCOc1ccccc1NC(=O)c1ncccn1`, the “% Inhibition” value is reported as -5% and the Z score is reported as 1.01.
In the case of `CCCn1nc(C)c(Cn2cnc3nccnc3c2=O)c1C`, the “% Inhibition” value is reported as 1% and the Z score is reported as -0.13.
With `O=C1CCc2cc(NC(=O)c3cc(C4CC4)on3)ccc2N1` the “% Inhibition” value was -11% and the Z score was 1.26.
`CCCN(CCC)C(=O)Cn1c(=O)n(Cc2ccc(C)c(C)c2)c(=O)c2sccc21` was tested, and the “% Inhibition” value was 26% and the Z score was -2.97.
With `COc1ccccc1-c1nnc(-c2ccc(OC)c(S(=O)(=O)N3CCOCC3)c2)o1` the “% Inhibition” value was -7% and the Z score was 1.13.
For `O=C(c1cc(Cl)sc1Cl)N1CCCS1(=O)=O`, the “% Inhibition” value was -5% and the Z score was 0.47.
`CC(C)N1CCNC(=O)[C@@H]1CC(=O)OCc1ccccc1` was tested, and the “% Inhibition” value was -8% and the Z score was 1.39.
For `Cn1cc(C(=O)c2nc(-c3ccccc3Cl)no2)cn1`, the “% Inhibition” value was 37% and the Z score was -5.4.
In the case of `CC(C)(C)C(=O)NCCNc1cncc(-n2cccn2)n1`, the “% Inhibition” value is reported as -3% and the Z score is reported as 0.29.
With `Cc1ccc(C(=O)N[C@H]2NN=C(c3sc(C)nc3C)O2)cc1` the “% Inhibition” value was 9% and the Z score was -1.25.
For `O=c1[nH]c2cc3c(cc2c(-c2ccc(F)cc2)c1Cc1ccccc1)OCCO3`, the “% Inhibition” value was -1% and the Z score was 0.17.
For `CN(C1CCCC1)S(=O)(=O)N1CCC(Cc2ccn[nH]2)CC1`, the “% Inhibition” value was -11% and the Z score was 1.27.
